To fix the notation:
B1: LC3A_28_1011 (protein)
chain: MSLIEKTKEEAKKAIEEAKKGEDAFLEVEITEEATEEEVKEVLEIIEETAEEISKIENVKLYIVVDFDGDQEKLDLITDGLEEIEEKYPNVSSIIAYDEK
B2: LC3A_28_939 (protein)
chain: MTTEEDNAAALAKAKEAAAKGEPVVITLTVRGTDTEADIDRAIATLKEIAEILKDVKGAAIVVDVEAGVPEEHINRLADTGDEIEKKYPNINVIIALDED
B3: LC3A_17_568 (protein)
chain: TAELEAATAELLKTLEEAAKFAAKVDKEAAKKLKELIERVKAAAATKDPRTIATVGAEAAREAAEILESLKSPDPEKKEHLIMELEGDAIEFESLLLKLE
B4: LC3A_free_8_2446 (protein)
chain: KNQKLVTEITELLDELEEEVEKLAKELGLSRLDILELELEIGSVISDIIAATDDSIEKIKEIAEEDLEELEEIAKEYSEELAEKVREAKEEILELIEKYE
B5: LC3A_free_39_2260 (protein)
chain: AAERREAARARLLELAAKASPEVAAAVTALAELIADRVDALERLAELLERAIEKGPEVVAIAGQFAAEAVERIRAGADVDEAVEEMLRLIENAIEIEEID
B6: LC3A_3_1599 (protein)
chain: MEELVKELLERLRKAGFSEKVLEAAEKLLKALAEKGFEEAAEKAAEKLLENKDLPEELLVETLNELLYIVETEDLTEEEVIEKIEEEFEVARLEKEIEEL
B7: LC3A_132_239 (protein)
chain: NEELYEKLKKEIEEKLKEIEKNIDNLEKVKELVKELEKLLDKAEKELTPEQVLELAEETAEKLDEIREKAEEAGKEEVAALLENASMYADGIAIEAELKL
B8: LC3A_28_1252 (protein)
chain: SKVEEQLKKAKAEVKAAVAAGEEALVTLTVTKDTNQEDIEKIIEAMYELAELGKDLPALSIIIDVEKGVKQEHIDKLADAGEELEKKYPNVTVIIALEEE
B9: LC3A_free_26_2133 (protein)
chain: EEWLDIAALDKAIELVEKILEELEKRPGKYEKLLEKVKKALELLEKETLESLKKAAELLKEILKELKELKPEDPELMERLLKLVEEALELVEENIEIMES
B10: LC3A_28_818 (protein)
chain: SAAEKTIAALRAQAEAAKNSKEPVLLEVDVSGTITLEEAERLMEELERLSKELSKKHKVYVVINFTEPVAPEVQNLIMDKAEEIEEKYPNVSIIIALPEE
B11: LC3A_17_538 (protein)
chain: MEELREELEETLEELEALVKRIAPHLPEAAKKAREELKEARKLLEAGDLRAAAELVVKTADELADAIEKAKFEDPVQKEVLIMEAEGLAIEAESILLRLE
B12: LC3A_45_1994 (protein)
chain: MYRATVDVLVPREKAEEVAELAREIARELERKSNGKLTVDFEKFEETYEATKDEEDVLFEIVIYGEDKDLVLDAAVELSDRLIEKTGGVVSSIISVEELP
B13: LC3A_3_1859 (protein)
chain: MEEIKKEIIELLKSLGRSEEVIEAAERLANLLIERGYKEALETLLEELKKLKDVSDEILLAMFEDLIEALETEDLSEEELIERIEEEARIALNDQEIEEL
B14: LC3A_147_464 (protein)
chain: MKYRVELDVLVKNLTPELLADFEELAEEIKKKFPDAEVELKVETDPEDPSLSLVTLTVTVDTEEDAKKIEDFLDKKLEELEKKYKDQILASMISREKVEP
B15: LC3A_28_1046 (protein)
chain: MELEKSAEAAIAEAKAQFAQGEEAVVTLKVPNIDTETAKKIVTETLETLIALSKEHGGQKVHVVIDLDGDQETLNAIIDVAEAAEAADPNLTVIIAYNDK
B16: LC3A_28_1258 (protein)
chain: SPLEENLKAAIEEVEKAVAKGEEAVVTITVPAGITEEEVEKVIETMEKIAEIGKDLKSVTIIVDVEKGVDQKHIDKLADKGEELEKKYPNLTVIFALEEE
B17: LC3A_3_1868 (protein)
chain: MDEIIEEILKLLKELGRSEETIEAAKKLLEALKEKGYENAAKTLLEELKKLKNVSDEDLKAMFEELLKAVTEENLNEEETIKLINEEASILLNDLEIEEL
B18: LC3A_28_1309 (protein)
chain: SRLEERFEAAIKEAEEAAKKGEEVVVTIDITAEEAREHLEEILELLERLAEVASKVPNAVIIIDVDEKVPQEELDAITDKADELEEKYPNVTVIIAISDE
B19: LC3A_17_586 (protein)
chain: SEEIKKELEELLKKLEALIKEAKALGLPEAEKIEKLLKEAKKKLKEGDLKEAAKLLEKAADLLADAFAEIEDEKGDLASLLEMEASGLELEAIRLLLKLE
B20: LC3A_141_356 (protein)
chain: KELKLTYTIEAETPEEAIKKLEEVYEEIKKLMEEKGFKKVEITVTIKTKNKETGETETKTIKETVTKENIDLVFDSLIIEVASAALKGKVTVTVEATLIE
B21: LC3A_3_1827 (protein)
chain: LEERIEETEELLREAGHSEETIEAFREAAELLKEKGYEKALETLIELLRENIDMPSDLLLEFLKEVKELVETSDLSEEELSEEIKKLAELYRNEYEIEEL
B22: LC3A_free_8_2442 (protein)
chain: SNQELVDKSLKLLDELEKEIEKWAKELGIDETDLGELLLLVGSAISDVISNSDKSPEEIFKILKEDLEEILEEAKKISEELYEKIKEKIEKILKEVEKLL
B23: LC3A_28_1241 (protein)
chain: MEIEKQIEEAKKKVEEAVKKGEEALVELTVDGNATPEDVDKVIEAMEEIAELGKDLPSLDIIVNVSAGVPQEHIDKLADAGEEIEKKYPNVTVIIALEER
B24: LC3A_17_531 (protein)
chain: KEELKKELEELLKEAKELIKEIKKRDPEAAKKLEKQLKEAEKLLKEGKLKEAAEQLAKLAREAADVLDATPWEDPIQQEVLIMEANGLEIEAIGILLKLE
B25: LC3A_28_908 (protein)
chain: GSSLKELEEALKKVEAAVAAGDTEPLVLEVTAPSNQEDVEKFLELLERLAEEASKLPGVSIIIDIDESVSQENKDKIIDKAEELEKKYPNVTVIIALPES
B26: LC3A_28_1106 (protein)
chain: SRVDEDNEKALAEAREAAAAGEPAVVTLNVYETDTEEDIEKKLETLREIAEILADLPGAAIIVNFIGKIKQEHIDKVADLGEEIEERYPNVTVILALDEE
B27: LC3A_3_1404 (protein)
chain: FEEIKAEILEELKKMGASEEVLEAAKKVMEKLEERGYLEAARELLREVKELKNASDEILLWFFEEVLEYLETNDDSEEEVVEFIREEARIAKSEQEIEEL
B28: LC3A_free_0_2096 (protein)
chain: TTVVVEVVAISKEKLSEEQVKKLKEALEKKAKEISEKRGWKTKVEVSEVDGRTIFTFTAESEKATLDEGLELEREIADFVEEKFKELGAEATIYTSVYEV
B29: LC3A_45_1982 (protein)
chain: MWEATIDLLVPRELAEEAYAILKEAGAELVARHGDDLKVDWDALDASYEASRDEEEVYLRLNIYHPDKQVALDSAVEIVDRLEERLGRKVAAIISVKEVP

Over roughly 2,300 sequences, “median log2 fold change of GCK-ALFA target abundance (FLAG IP / Myc IP barcode read proportion)” has its median near 0.095; the lowest 2% begin near -0.47. The list shows a part of the results.

In the assay the target is MAP1LC3A, Q9H492. As to the kind of experiment: median log2 fold change of GCK-ALFA target abundance (FLAG IP / Myc IP barcode read proportion) (log2 ratio); each designed protein is fused to an ALFA-tag nanobody in HEK293 cells to bring the named protein to FLAG-tagged glucokinase (GCK); Myc marks an untargeted standard; higher = target protein stabilised (more abundant). As to conditions: target protein: 3xFLAG-MCP-GCK-ALFA reporter; HEK293 landing pad (RPLP). An outline of the steps:
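Binders fused to an ALFA nanobody were recombined as a library into HEK293 landing-pad cells, which were induced with 2 μg mL^−1 doxycycline and then transfected to express a FLAG-tagged target and a Myc-tagged standard. After 48 h, circular RNA barcodes recovered by anti-FLAG and anti-Myc immunoprecipitation of lysates were reverse transcribed, amplified and sequenced. Each binder's target abundance is the median log2 ratio of FLAG to Myc barcode read proportions, from barcodes present at ≥10^−7 in both replicates, binders carrying ≥3 barcodes per replicate, a 10^−6 pseudocount and pooled replicates.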
For B1, the “median log2 fold change” value is -0.21.
On to B2, for which the “median log2 fold change” value worked out at 0.0548.
Turning to B3, the “median log2 fold change” value was found to be 0.256.
B4: the “median log2 fold change” value was -0.14.
The value for B5 was 0.275; that for B6 was 0.0961; that for B7 was 0.0241.
The value for B8 was 0.158; that for B9 was -0.322.
In the case of B10, the “median log2 fold change” value was -0.294.
The value for B11 was -0.126; that for B12 was -0.143; that for B13 was 0.169.
The value for B14 was -0.487; that for B15 was 0.0196.
The value for B16 was 0.162; that for B17 was 0.4.
B18: the “median log2 fold change” value is 0.0103.
The value for B19 was 0.168.
Next, B20: 0.215; B21: 0.154.
Next, B22: 0.18; B23: 0.309.
For the molecule B24, the “median log2 fold change” value was -0.0226.
In the case of B25, the “median log2 fold change” value is -0.123.
The value for B26 was -0.102; that for B27 was 0.00419; that for B28 was -0.0514.
Consider B29, for which the “median log2 fold change” value stood at 0.0214.
